# The source gives no read counts; variants with many changes may rest on few reads.
# B1: CPEB3 Ribozyme (parent)
# chain: UAACAGGGGGCCACAGCAGAAGCGUUCACGUCGCAGCCCCUGUCAGAUUCUGGUGAAUCUGCGAAUUCUGCUGUAUAUCUC
# Variants of: B1
# Test: self-cleavage, relative activity (ratio to wild type); higher = more cleavage; in vitro, sequencing
# How it was run: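 After error-prone PCR and barcoding, CPEB3 ribozyme mutant libraries were transcribed with T7 RNA polymerase at 37°C for 5 hours, then given 15 min with DNase I before an EDTA stop, and they cleaved during both steps. Reverse transcription with template switching preceded Illumina sequencing. Relative activity divides a variant's cleaved/total read fraction by the unmutated ribozyme's. At least 5 reads were required per variant, and three batches were averaged.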
row,Variant,self-cleavage
1,UAACAGGGGGUCACAGCAGAAGCGUCCACGUCGCAGCCCCUGUCAGAUUCUGGUGAAUCUGCGAUUUCUACUGUUUAUCUC [C11U U26C A65U G70A A75U],0.04
2,UAACAGGGGGCAACGGCAGAAGCGUUCACGUCGCAGCACCUGCCAGAUUCUGGUGAACCUGCGAAUUCCGCUGUAUAUCUC [C12A A15G C38A U43C U58C U69C],0.04
3,UAACAGGGGGCAUCAGCAGAAGCGCUCACGUCGCAGCCCCUGUCAGAUUCUGGUGAGUCUGCGAAUUCUGCUGUAUAUCUC [C12A A13U U25C A57G],0.2
4,UAACAGGGGGUCACAGCAGAAGCGUUCACGUCGCAGCCCCUGUCAGACUCUGGUGAAUCUGCGAAAUCUGCUGUAUAUCUC [C11U U48C U66A],0.17
5,UAACAGGGGGCAGCAGCAGAAGCGUACACGUCGCAGCCCCUGUCAGACUCUGGUGAAUCUGCGAGUUCUGCUGUAUAUCUC [C12A A13G U26A U48C A65G],0.11
6,UAACAGGGGGUCACAGCAGAAGCGUUCACGUCGCAGCCCCUGUCAGAUUCUGGUGAAUCCGCGAAUUCCGCUGUACUUCUC [C11U U60C U69C U76C A77U],0.12
7,UAACAGGGGGUCACAGCAGAAGCGUACACGUCGCAGCCCCUGCCAGAUUCUGGUGGAUCUGCGAAUUGUGCUGUAGAUCUC [C11U U26A U43C A56G C68G U76G],0.05
8,UAACAGGGGGCAACAGCAGAAGCGUUCCCGUCGCAGCCCCUGUCAGACUCUGGUGAAUCUGCGAAUUCUGCUGUAUACCUC [C12A A28C U48C U78C],0.3
9,UAACAGGGGGUCACAGCAGAAGCGACCACGUCGCAGCCCGCGUCAGAUUCUGGUGAAUCUGCGAAUUCUGCUGUAUACCUC [C11U U25A U26C C40G U41C U78C],0.04
10,UAACAGGGGGUCACAGCAGAAGCGUUCACGUCGCAGCCCCUGUCAGAUUCUGGCGAAUCUGCGAAUUCCGCUGUAUAUCUC [C11U U54C U69C],0.08
11,UAACAGGGGGCAACAGCUGAAGCGUUCACGUCGCAGCCCCUGUCAGAUUCUGGCGAAACUGCGCAUUCUGCUGUAUAUCUC [C12A A18U U54C U58A A64C],0.17
12,UAACAGGGGGUCACAGCAGAAGCGUCCACGUCGCAGCCCCUGUCGGAUUCUGGUGAAUCUGUGAAUUCUGCUGUAUAUCUC [C11U U26C A45G C62U],0.28
13,UAACAGGGGGUCACAGCAGAAGCGUCCUCGUCGCAUCCCCUGUCAGAUUCUGGUGAAUCUGCGAAUUCAGCCGUAUAUCUC [C11U U26C A28U G36U U69A U72C],0.05
14,UAACAGGGGGUCACAGCAGAAGCGUUCACGUCGCAGCCCCCGUCAGGUUCUGGUGAAUCUGCGAAUUCUGCUGUAUACCUC [C11U U41C A47G U78C],0.36
15,UAACAGGGGGCACCAGCAGAAGCGCUCACGUCGCAGCCCCUGUCAGGUUCUGGUGAACCUGCGAAUUCUGCUGUGUAUCUC [C12A A13C U25C A47G U58C A75G],0.08
16,UAACAGGGGGUCACAGCAGAAGCGUUCACGUCGCAGCCCCUGUCAUAUUCUGGUGAAUCUGCGAAUCCUGCUGUAAAUCUC [C11U G46U U67C U76A],0.06
17,UAACAGGGGGCAACAGCAGGAGCGUACACGUCGUAGCCCCUGUCAGAUCCUGGUGGAUCUGCGAAUUCUGCUGUAUAUCUC [C12A A20G U26A C34U U49C A56G],0.1

row,Variant,self-cleavage
1,UAACAGGGGGCAACGGCAGAAGCGUUCACAUCGCAGCCCCUGUCAGAUUCUGGCGAAUCUGCGAAUUCUGCUGUAUACCUC [C12A A15G G30A U54C U78C],0.12
2,UAACAGGGGGUCACAGCAGAAGCGUUCACGUCGCAGCCCCUGUCAGAAUCUGGUGAAUCUGCGGAUUCUGCUGUAUAUCUC [C11U U48A A64G],0.3
3,UAACAGGGGGCAACGGCAGAAGCGUUCACGUCGCAGCCCCUGCCAGAUUCCGGUGAGUCUGCGAAUUCUGCUGUAUAUCUC [C12A A15G U43C U51C A57G],0.26
4,UAACAGGGGGCAACAGCAGGAGCGUUCACGUCGCAGCCCCUGUCAGAUGCUGGUGAAUCUGCGAAUUCUGCUGUGUAUCUC [C12A A20G U49G A75G],0.47
5,UAACAGGGGGUCACAGCAGAAGCGCUCACGUCGUAGCCCCUGUCGGUUUCUGGUGAAUCUGCGAAUUCAGCCGUAUAUCUC [C11U U25C C34U A45G A47U U69A U72C],0.04
6,UAACAGGGGGUCACAGCAGAAGCGCUCACGUAGCAGCCCCUGUCAGAUUCUGGUGAAUCUGCGAAUUCUGCAGUAUAUCUC [C11U U25C C32A U72A],0.04
7,UAACAGGGGGUCACAGCAGAAGCGUACACGUCGCAGCCCCUGUCAGUUUCUGGUGAAUCUGCGUAUUCUGCUGUAUAUCAC [C11U U26A A47U A64U U80A],0.05
8,UAACAGGGGGCAACAGCAGAAGCGUUCACGUCGCUGCCCCUGUCAGAUUCUGGUGAAUCUGCGAACUCUGCCGUACAACUC [C12A A35U U66C U72C U76C U78A],0.57
9,UAACAGGGGGCAGCAGCGGAAGCGUUCACGUCGCAGCCCCUGUCAGAUUGUGGUGAAUCUGCGAAUUCCGCUGUAUACCUC [C12A A13G A18G C50G U69C U78C],0.53
10,UAACAGGGGGCAGCUGCAGAAGCGUUCACGUCGCAGCCCCUGUCAGAUUCUGGUGAAUCUGCGAAUUCUGCUGUAUAUCUC [C12A A13G A15U],0.99
11,UAACAGGGGGCAGCAGCAGAAGCGUUCACGUCGCAGCCCCUGUCAGAUUCUGGAGAAUCUGCGAAUUCAGCCGUAUAUCUC [C12A A13G U54A U69A U72C],0.46
12,UAACAGGGGGCAUCAGCAGAAGCGUUCACGUCGCAGCCCCUGUCAGAUUCUGGUGAAUCUGCGAAUUCUGCUAUAUAUCUC [C12A A13U G73A],1.01
13,UAACAGGGGGUCACAGCAGAAGCGCUCACGUCGCAGCCCCUGUCAGAUUCUGGUGAAUCUGCGUAUUCUGCUGUAUAUCAC [C11U U25C A64U U80A],0.05
14,UAACAGGGGGCAACAGCGGAAGCGUUCACGUCGCGGCCCCUGUCAGAUUCUGGUGAAUCUGCGAAUUCUGCUGUAUAUCUC [C12A A18G A35G],0.7
15,UAACAGGGGGCAACAGCAGAAGCGUUCACGUCGCGGCCCCUGCCAGAUUCUGGUGAAUCUGCGAAUUCUGCUGUACGUCUC [C12A A35G U43C U76C A77G],0.5
16,UAACAGGGGGCAACAGCAGUAGCGUUCACGUCGCAGCCCCUGUCAGGUUCUGGUGAAUCUGCGAAUUCAGCUGUAUAUCUC [C12A A20U A47G U69A],0.41
17,UAACAGGGGGCAUCAGCAGAAGCGUCCACGACGCAGCCCCUGCCAGAUUCUGGUGAAUCUGCGAAUUCUGCUGUGUAACUC [C12A A13U U26C U31A U43C A75G U78A],0.08
